# Test results taken from PubChem BioAssay AID686978 (National Center for Advancing Translational Sciences (NCATS), 2013).
# Hit rate of the full screen: of about 420,000 compounds, about 64,000 (15%) were called active. Inconclusive results, whose numbers are uncertain, are shown with a selection of clear calls. Calls follow the shape of the dose curve; as a rule, active = well fitted inhibition curve with a large enough effect; inconclusive = small, poorly fitted or top-dose-only effect; inactive = flat fitted curve, though single readings scatter. No potency is given beside an inconclusive call; the fits are too rough.
# Test: qHTS for Inhibitors of human tyrosyl-DNA phosphodiesterase 1 (TDP1): qHTS in cells in absence of CPT; also: nearly all actives have a fitted effect of over 55% in size
# Conditions: DT40 Tdp1-/- hTDP1 cells, no CPT, ATP luminescence, 48 h
# Outline: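 Growth of hTDP1-complemented DT40 Tdp1-knockout cells is measured by ATP luminescence after at least 48 hr compound exposure at 37 °C, with DMSO substituting for the 20 nM CPT used in the parallel screen.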
# [1] = activity change, negative = growth inhibition: at 46.2 µM (top of the series) unless noted
# % is scaled to controls: 0 for no effect and ±100 for the full control effect; potency is read from the fitted curve at half-maximal effect; tags tell the direction and shape of the fitted curve.
smiles,measurement,setting,value
CCc1ccc(C(=O)c2cn(Cc3ccc(F)cc3)c3cc(OC)c(OC)cc3c2=O)cc1,Potency,[1],active: 6.51 µM
CC(=O)c1cc(-c2ccc(F)cc2)n(CC(=O)Nc2cc(C)cc(C)c2)c1C,Potency,[1],"inconclusive [inhibitor, single point]"
COc1ccc(Cl)cc1NC(=O)C1CSC(c2ccncc2)=N1 (stereo not drawn),Potency,[1],"inconclusive [inhibitor, single point]"
Cn1c(Nc2ccc(F)cc2)nc2ccccc21,Potency,[1],"inconclusive [inhibitor, single point]"
C[C@H](CO)N1C[C@H](C)[C@H](CN(C)C(=O)Nc2ccc(C(F)(F)F)cc2)OCc2cnnn2CCCC1=O,Potency,[1],inactive
Cc1ccc(C(C)C)c(OCCSc2nc3ccccc3n2CC(O)CO)c1 (stereo not drawn),Potency,[1],active: 16.4 µM
COc1ccccc1Cc1nc2ccccc2nc1SCC(=O)N1CCN(c2ccccc2)CC1,Potency,[1],active: 23.1 µM
Cc1sc2ncnc(SCC(=O)NNC(=O)COc3cccc4ccccc34)c2c1C,Potency,[1],"inconclusive [inhibitor, single point]"
Cc1cc(C)c2cc(CN(Cc3nnnn3C3CCCCC3)CC3CCCO3)c(=O)[nH]c2c1 (stereo not drawn),Potency,[1],active: 13 µM
Cc1ccsc1C(=O)N1CCC(N2CCC(C(=O)NCC3CCCO3)CC2)CC1 (stereo not drawn),Potency,[1],inactive
COc1ccc(-n2c(N3CCN(C)CC3)nc3sc4c(c3c2=O)CCCCC4)cc1,Potency,[1],active: 14.6 µM
CC(C)CCNC(=O)COc1ccc(N(C)S(=O)(=O)c2ccc(F)cc2)cc1,Potency,[1],"inconclusive [inhibitor, single point]"
CC(=O)C[C@@H]1SC[C@H](c2ccccc2)N1S(=O)(=O)c1ccc(C)cc1,Potency,[1],active: 14.6 µM
Cc1ccc(C)c(Cn2c(C(=O)OC(C)C)cc3c2ccn3C)c1,Potency,[1],"inconclusive [inhibitor, partial curve, poor fit]"
Cc1cccc(-n2c(O)c(C=Nc3c(C)n(C)n(-c4ccccc4)c3=O)c3ccccc3c2=O)n1,"activity change, negative = growth inhibition",[1],inconclusive: -34.8% [inhibitor]
CCOC(=O)c1cnc(SCc2nc(N)nc(Nc3ccc(F)cc3)n2)nc1N,Potency,[1],"inconclusive [inhibitor, single point]"
CC(C)(C)CC(=O)NC(=S)NCCc1ccccc1,Potency,[1],inactive
CCOc1ccc(NS(=O)(=O)c2ccc3c(c2)oc(=O)n3C)cc1,Potency,[1],"inconclusive [inhibitor, partial curve, poor fit]"
CC(=O)c1cc2c(cc1NC(=O)Cc1ccsc1)OCO2,Potency,[1],"inconclusive [inhibitor, single point]"
C[C@@H](O)C1NC(=O)[C@H](CCCCN)NC(=O)c2cc([N+](=O)[O-])cc(I)c2OCC[C@@H](C(N)=O)NC1=O (stereo partly drawn),Potency,[1],inactive
O=C(c1ccc([N+](=O)[O-])cc1)N1CCc2ccccc2C1,Potency,[1],inactive
Nc1cccc2c1C(=O)N(C(=O)c1ccco1)C2=O,Potency,[1],inactive
O=C(/C=C/Nc1ccc(F)cc1)c1ccc(Br)cc1,Potency,[1],inactive
O=C(O)CCC/C=C\C[C@@H]1[C@@H](/C=C/[C@@H](O)COc2cccc(C(F)(F)F)c2)[C@H](O)C[C@@H]1O,Potency,[1],inactive
COc1cccc(NC(=O)/C(C#N)=C/c2c(C)n(Cc3ccc(Cl)cc3)c3ccccc23)c1,Potency,[1],"inconclusive [inhibitor, full curve]"
O=CNc1cc(-c2ccccc2)cn2c(-c3ccc(F)c(Cl)c3)cnc12,Potency,[1],active: 23.1 µM
COc1ccc(-c2nc(CS(=O)CC(=O)N3CCOCC3)c(C)o2)cc1OC (stereo not drawn),Potency,[1],inactive
O=C(NCc1ccco1)c1ccc2c(c1)N(Cc1ccc(Cl)cc1)C(=O)c1ccccc1S2,Potency,[1],"inconclusive [inhibitor, single point]"
COc1ccc(S(=O)(=O)N(C)CC(=O)N2CCN(Cc3ccccc3)CC2)cc1C,Potency,[1],"inconclusive [inhibitor, single point]"
COCCn1c(SCC(=O)NC2CC2)nnc1-c1ccco1,Potency,[1],inactive
O=C(Nc1sc2c(c1C(=O)O)CCCC2)c1ccc(Cl)cc1,Potency,[1],"inconclusive [inhibitor, single point]"
COc1cc2c(-c3ccc4[nH]ccc4c3)c(-c3ccc(C#N)cc3)oc(=O)c2cc1OC,Potency,[1],active: 5.8 µM
Cc1cc(C)c(S(=O)(=O)C(C)C)c(=O)[nH]1,Potency,[1],inactive
O=c1c2cccnc2[nH]c(=S)n1CCC1=CCCCC1,Potency,[1],"inconclusive [inhibitor, single point]"
COc1ccc(CC(O)CC2c3c(cc4c(c3OC)OCO4)CCN2C)cc1 (stereo not drawn),Potency,[1],"inconclusive [inhibitor, partial curve, poor fit]"
CCN(CC)S(=O)(=O)c1ccc(NC(=O)c2c(-c3ccccc3)noc2C)cc1,Potency,[1],"inconclusive [inhibitor, single point]"
CCOc1ccccc1N(C)C(=O)CCS(=O)(=O)c1ccc2c(c1)NC(=O)CO2,Potency,[1],inactive
C[N+]1(CC(=O)c2ccc(Cl)cc2)CCOCC1,Potency,[1],inactive
COc1ccc(C(=O)/C=C/c2ccc(OC)cc2OC)c(O)c1,Potency,[1],"inconclusive [inhibitor, single point]"
CC(=O)Oc1ccc(N(c2ccccc2)S(=O)(=O)c2ccc(C)cc2)cc1,Potency,[1],"inconclusive [inhibitor, single point]"
COc1ccc(S(=O)(=O)N2CCCC(C(=O)N3CCN(C)CC3)C2)cc1C (stereo not drawn),Potency,[1],"inconclusive [inhibitor, partial curve, poor fit]"
O=C(COc1ccc(-c2nnco2)cc1)Nc1cc([N+](=O)[O-])ccc1F,Potency,[1],inactive
CCN1CCN(c2nc3ccccc3nc2NS(=O)(=O)c2ccc(NC(C)=O)cc2)CC1,Potency,[1],inactive
Cc1onc(-c2ccccc2Cl)c1C(=O)OCC(=O)c1ccccc1,Potency,[1],"inconclusive [inhibitor, single point]"
COC(=O)c1cc(C(=O)Nc2nnc(CC(C)(C)C)s2)cc([N+](=O)[O-])c1,Potency,[1],"inconclusive [inhibitor, single point]"
CC(C)[C@H](NC(N)=O)C(=O)Nc1ccc(Oc2ccccc2)cc1,Potency,[1],inactive
O=c1cc(-c2ccncc2)oc2ccccc12,Potency,[1],"inconclusive [inhibitor, single point]"
Cc1cc2nc(-c3ccc(NC(=O)c4cc5ccccc5o4)cc3)oc2cc1C,Potency,[1],inactive
CC(C)=C1C2C=CC1C1C(=O)N(c3ccc4c(c3)OCO4)C(=O)C21 (stereo not drawn),Potency,[1],active: 20.6 µM
CCOc1ccc(Nc2nc3c(S(=O)(=O)c4ccc(C(C)C)cc4)nnn3c3ccsc23)cc1,Potency,[1],"inconclusive [inhibitor, partial curve]"
C=CCc1cc(Cl)ccc1OCCOCCNCCOC,Potency,[1],"inconclusive [inhibitor, single point]"
O=C(C1=C[C@H](c2ccc(C(F)(F)F)cc2)C[C@H](OCc2ccc(CO)cc2)O1)N1CCOCC1,Potency,[1],"inconclusive [inhibitor, single point]"
COc1ccc2c(c1)OC1=C(C(=O)CCC1)C2C1=C(O)CCCC1=O (stereo not drawn),Potency,[1],inactive
O=C1NC[C@H](Cc2ccccc2)N(C[C@@H]2CCCN2C[C@H](Cc2ccccc2)N2C[C@H](Cc3ccc(O)cc3)N(CCc3ccccc3)C(=O)C2=O)C1=O,Potency,[1],"inconclusive [inhibitor, single point]"
COCCn1c(Sc2nc(C)cs2)nc2c1c(=O)[nH]c(=O)n2C,Potency,[1],inactive
C/C(=N\NC(=S)Nc1ccccc1)C1Cc2ccccc2C(=O)O1 (stereo not drawn),Potency,[1],"inconclusive [inhibitor, single point]"
COC(=O)C[C@H]1c2cc(F)ccc2S(=O)(=O)N1Cc1ccccc1OC,Potency,[1],"inconclusive [inhibitor, single point]"
O=C(N/N=C/c1cc([N+](=O)[O-])ccc1O)Nc1ccccc1,Potency,[1],"inconclusive [inhibitor, single point]"
Nc1cccc2c1C(=O)N(C(=O)c1cccc(S(=O)(=O)N3CCCCCC3)c1)C2=O,Potency,[1],inactive
COc1ccc(N(Cc2cc3cccc(C)c3[nH]c2=O)C(=O)c2cccc(Cl)c2)cc1,Potency,[1],active: 8.2 µM
COc1ccc(S(=O)(=O)N(C)c2ccc(C(=O)NCc3ccco3)cc2)cc1OC,Potency,[1],inactive
CCOC(=O)c1nnn(-c2nonc2-n2cccc2)c1-c1cccc([N+](=O)[O-])c1,"activity change, negative = growth inhibition",[1],inconclusive: -32.8% [inhibitor]
O=C(COc1ccccc1Cc1ccccc1)Nc1cccc(S(=O)(=O)N2CCOCC2)c1,Potency,[1],"inconclusive [inhibitor, single point]"
CN(CC(=O)Nc1ccc(Cl)cc1)C(=O)CNC(=O)c1ccc2c(c1)OCO2,Potency,[1],inactive
CCOC(=O)N1CCC(NC(=O)c2cnn3c(C(F)(F)F)cc(-c4cccc(OC)c4)nc23)CC1,Potency,[1],active: 16.4 µM
COc1ccc2nc(N(Cc3cccnc3)C(=O)Cc3ccccc3)sc2c1,Potency,[1],inactive
COc1ccc2c(c1)nc(N)n2Cc1ccccc1,Potency,[1],"inconclusive [inhibitor, partial curve]"
O=[N+]([O-])c1cccc2c(Br)[nH]nc12,Potency,[1],"inconclusive [inhibitor, partial curve, poor fit]"
same,"activity change, negative = growth inhibition",[1],inconclusive: -37.4% [inhibitor]
same,"activity change, negative = growth inhibition",at 46.2 µM (top of the series),inactive: -28%
Cc1cc(F)ccc1-c1cc(C(=O)NCc2cccc(C(F)(F)F)c2)[nH]n1,Potency,[1],"inconclusive [inhibitor, single point]"
COc1ccccc1CNc1ncncc1-c1ccccc1CN(C)C,"activity change, negative = growth inhibition",[1],inconclusive: -32% [inhibitor]
O=C(NCCO)c1cc2cc(Cl)cc(Cl)c2oc1=O,Potency,[1],inactive
